From PubChem BioAssay (NCI)
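Each compound was tested at five concentrations against cells in 96-well plates for 48 hours. GI50: concentration for 50% inhibition of growth.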 For part of its entries the source gives two or more results. The list is limited to them. The source may hold further records. Records of one sample usually come from different ranges of test concentrations, which the source does not state; a value can be the end of its range.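 TGI: concentration producing complete growth inhibition.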

Legend:
Assay in all cases: NCI anticancer screen, dose series, 48 h
786-0 renal = tested on: 786-0 renal
DU-145 prostate = tested on: DU-145 prostate
HCT-116 colon = tested on: HCT-116 colon
MDA-MB-231 breast = tested on: MDA-MB-231 breast
MDA-MB-435 = tested on: MDA-MB-435
NCI/ADR-RES ovarian = tested on: NCI/ADR-RES ovarian
OVCAR-8 ovarian = tested on: OVCAR-8 ovarian
PC-3 prostate = tested on: PC-3 prostate
RXF 393 renal = tested on: RXF 393 renal
SNB-75 CNS = tested on: SNB-75 CNS
UACC-62 melanoma = tested on: UACC-62 melanoma

`O=C1C=C(N2CC2)C(=O)C=C1N1CC1` was tested. Which GI50 (786-0 renal) did it give?
The GI50 was 7.2 nM [1 test] and 153 nM [mean of 2 tests].

And the TGI (786-0 renal)?
The TGI was 42.1 nM [1 test] and 438 nM [mean of 2 tests].

What about the TGI (DU-145 prostate) of the same compound?
Its TGI is 75.3 nM and 2.32 µM.

What about the GI50 (HCT-116 colon) of the same compound?
The GI50 was 20.9 nM and 357 nM.

What about the TGI (HCT-116 colon) of the same compound?
Its TGI is 402 nM and 10.2 µM.

What about the TGI (MDA-MB-231 breast) of the same compound?
The TGI was 297 nM and 5.21 µM.

What about the TGI (MDA-MB-435) of the same compound?
Its TGI is 70.7 nM and 2.55 µM.

And the TGI (NCI/ADR-RES ovarian)?
The TGI was 228 nM and 2.52 µM.

What about the GI50 (OVCAR-8 ovarian) of the same compound?
Its GI50 is 52.3 nM [1 test] and 809 nM [mean of 2 tests].

And the TGI (PC-3 prostate)?
The TGI was 242 nM and 3.98 µM.

And the TGI (RXF 393 renal)?
The TGI was 15.6 nM and 165 nM.

And the TGI (SNB-75 CNS)?
Its TGI is 72.3 nM and 1.64 µM.

And the TGI (UACC-62 melanoma)?
Its TGI is 40.2 nM and 706 nM.
